Results taken from PubChem BioAssay AID504333 (National Center for Advancing Translational Sciences (NCATS), 2011).
The whole screen tested about 360,000 compounds, of which about 16,000 (4.4%) were called active. This list was built around the results that the source calls inconclusive (neither active nor inactive); the mix of calls is not that of the screen. Calls come from the whole dose curve; as a rule, active = well fitted inhibition curve with a large enough effect; inconclusive = small, poorly fitted or top-dose-only effect; inactive = no such curve, though single readings can be large or run the other way. Potencies beside an inconclusive call are fits to weak or partial responses and may not hold up.

Biological target: Bromodomain adjacent to zinc finger domain protein 2B (Homo sapiens) (UniProt Q9UIF8)
UniProt Q9UIF8, sequence (Q9UIF8 whole entry, looked up, the tested form may be a part): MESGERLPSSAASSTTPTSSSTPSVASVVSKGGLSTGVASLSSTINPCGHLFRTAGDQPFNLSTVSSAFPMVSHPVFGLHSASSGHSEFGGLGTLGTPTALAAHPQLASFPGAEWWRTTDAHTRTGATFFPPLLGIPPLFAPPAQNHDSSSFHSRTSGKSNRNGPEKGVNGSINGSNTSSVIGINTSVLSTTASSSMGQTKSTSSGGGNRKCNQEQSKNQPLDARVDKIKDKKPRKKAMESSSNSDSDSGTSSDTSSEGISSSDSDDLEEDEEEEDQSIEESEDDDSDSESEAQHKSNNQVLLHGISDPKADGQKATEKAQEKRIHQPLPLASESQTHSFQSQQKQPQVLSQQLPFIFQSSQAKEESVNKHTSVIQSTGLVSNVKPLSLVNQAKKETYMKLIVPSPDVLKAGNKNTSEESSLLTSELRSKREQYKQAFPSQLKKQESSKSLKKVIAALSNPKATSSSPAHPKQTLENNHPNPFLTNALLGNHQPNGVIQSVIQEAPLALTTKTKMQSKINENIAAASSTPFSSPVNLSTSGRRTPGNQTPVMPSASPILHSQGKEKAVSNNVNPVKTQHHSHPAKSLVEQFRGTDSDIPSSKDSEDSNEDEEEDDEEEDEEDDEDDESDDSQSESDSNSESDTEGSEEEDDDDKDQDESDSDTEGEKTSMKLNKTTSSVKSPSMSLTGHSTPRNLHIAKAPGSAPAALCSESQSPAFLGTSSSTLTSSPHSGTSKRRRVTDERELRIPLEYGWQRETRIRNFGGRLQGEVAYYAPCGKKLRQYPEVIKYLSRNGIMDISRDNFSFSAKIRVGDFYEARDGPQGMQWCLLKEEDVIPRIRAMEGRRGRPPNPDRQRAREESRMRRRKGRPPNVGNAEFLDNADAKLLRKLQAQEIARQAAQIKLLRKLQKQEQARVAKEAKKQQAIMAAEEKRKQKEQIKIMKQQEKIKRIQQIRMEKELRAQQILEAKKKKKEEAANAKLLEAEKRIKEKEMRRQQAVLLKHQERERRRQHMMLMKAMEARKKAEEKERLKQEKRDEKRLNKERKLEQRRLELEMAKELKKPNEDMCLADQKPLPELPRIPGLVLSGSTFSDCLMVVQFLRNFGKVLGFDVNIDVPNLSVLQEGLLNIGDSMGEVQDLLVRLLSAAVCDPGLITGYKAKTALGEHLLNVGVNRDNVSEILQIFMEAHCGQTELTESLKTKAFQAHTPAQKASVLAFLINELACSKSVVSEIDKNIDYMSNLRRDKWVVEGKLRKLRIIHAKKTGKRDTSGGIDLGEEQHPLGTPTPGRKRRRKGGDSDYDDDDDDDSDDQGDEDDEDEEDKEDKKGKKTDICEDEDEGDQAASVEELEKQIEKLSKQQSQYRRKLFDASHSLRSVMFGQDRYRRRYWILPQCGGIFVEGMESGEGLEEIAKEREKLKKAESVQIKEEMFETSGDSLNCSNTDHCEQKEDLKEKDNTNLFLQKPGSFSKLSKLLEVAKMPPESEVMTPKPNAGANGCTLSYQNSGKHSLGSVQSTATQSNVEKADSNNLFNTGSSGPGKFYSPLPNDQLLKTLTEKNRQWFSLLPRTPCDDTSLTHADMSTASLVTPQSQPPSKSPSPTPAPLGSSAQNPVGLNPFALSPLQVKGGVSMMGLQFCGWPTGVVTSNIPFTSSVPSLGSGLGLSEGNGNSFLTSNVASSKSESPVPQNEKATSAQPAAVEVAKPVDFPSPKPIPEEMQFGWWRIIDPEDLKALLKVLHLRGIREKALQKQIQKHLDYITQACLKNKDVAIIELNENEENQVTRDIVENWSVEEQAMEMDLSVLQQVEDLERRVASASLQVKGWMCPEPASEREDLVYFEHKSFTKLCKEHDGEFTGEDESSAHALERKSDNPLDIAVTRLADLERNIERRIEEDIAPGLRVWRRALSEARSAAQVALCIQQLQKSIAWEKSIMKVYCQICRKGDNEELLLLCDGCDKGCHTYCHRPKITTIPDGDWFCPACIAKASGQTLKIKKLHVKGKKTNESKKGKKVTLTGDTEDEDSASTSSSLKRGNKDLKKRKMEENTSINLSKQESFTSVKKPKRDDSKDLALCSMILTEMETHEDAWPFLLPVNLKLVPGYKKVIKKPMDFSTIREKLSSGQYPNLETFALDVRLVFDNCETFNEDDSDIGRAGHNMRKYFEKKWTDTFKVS
Assay: qHTS Assay for Inhibitors of BAZ2B; note: nearly all actives have a fitted effect of over 60% in size
Settings: AlphaScreen BAZ2B-H3K14Ac peptide displacement; series mostly up to 114 µM
Method in brief: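 In this displacement format the biotinylated H3(5-23) peptide acetylated at Lys14 serves as ligand at 50 nM, with BAZ2B at 50 nM in PBS pH 7.4 containing 0.01% Tween-20. Donor and acceptor beads are 10 ug/mL final.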
Potency is the fitted concentration of half-maximal effect; tags give direction and shape of the fitted curve.

Structure (SMILES)	Potency
Cc1ccc(OCc2nc(C#N)c(NCc3ccco3)o2)cc1	active: 35.5 µM
CC(C)c1ccc(O)c(NC(=S)NC(=O)c2ccc3c(c2)OCO3)c1	inconclusive: 17.8 µM [inhibitor, full curve]
CC(=O)NC(C)c1cc(F)c2cccnc2c1O (stereo not given)	active: 22.4 µM
CCCCN(C(=O)Nc1ccc(OCC)cc1)C1CCN(C(C)=O)CC1	inconclusive: 89.1 µM [inhibitor, single point]
CCCC(=O)Nc1nnc(-c2ccc3c(c2)OCCO3)o1	active: 79.4 µM
COC(=O)c1ccc(NC(=O)C(c2ccccc2)N2Cc3ccccc3C2=O)cc1 (stereo not given)	inconclusive: 79.4 µM [inhibitor, single point]
CN1CCN(c2ccc(-c3nc(-c4ccccc4)no3)cc2[N+](=O)[O-])CC1	inconclusive: 70.8 µM [inhibitor, single point]
CCOc1ccc(OCCSc2ccc(S(=O)(=O)N3CCN(C)CC3)cn2)cc1	inconclusive: 79.4 µM [inhibitor, partial curve]
COc1ccccc1CN(Cc1cc2cc3c(cc2[nH]c1=O)OCCO3)Cc1nnnn1Cc1ccco1	inconclusive: 89.1 µM [inhibitor, single point]
Cc1ccc(-c2onc(C)c2C)cc1S(=O)(=O)N1CCc2ccccc21	inactive
CS(=O)(=O)Oc1ccc2c(c1)O/C(=C\c1cccnc1)C2=O	inactive
O=c1oc2ccccc2c(O)c1Cc1cc(Cl)c2cccnc2c1O	active: 31.6 µM
O=C(OCCCc1cc2ccccc2c(=O)o1)c1ccc2c(c1)OCO2	inactive
CC1CCCC/C1=N\NC(=S)Nc1cccnc1 (stereo not given)	inconclusive: 79.4 µM [inhibitor, single point]
Cc1cccc(NCC(O)Cn2cnc3c2c(=O)n(C)c(=O)n3C)c1 (stereo not given)	inconclusive: 89.1 µM [inhibitor, single point]
COc1ccc(NC(=O)CCc2nnc3ccc(N4CCN(c5cccc(OC)c5)CC4)nn23)cc1	inconclusive: 31.6 µM [inhibitor, partial curve]
CCCCCCSc1ccc([C@@H]2[C@H]3C(=O)N(C)C(=O)[C@H]3[C@]3(C(=O)OC)CCCCN23)cc1OC	inconclusive: 100 µM [inhibitor, single point]
CC1(C)OC(c2ccccc2)=C/C(=C/C=Nc2ccccc2)O1	inconclusive: 79.4 µM [inhibitor, single point]
CC1=NN(c2ccccc2)C(=O)C1N=Nc1ccc(N)cc1 (stereo not given)	active: 12.6 µM
Cc1nn(CC(=O)c2ccc(Cl)s2)c(C)c1[N+](=O)[O-]	inconclusive: 70.8 µM [inhibitor, single point]
Cc1cc(C)c2nc(NNC(=O)c3ccc(S(=O)(=O)N4CC(C)CC(C)C4)cc3)sc2c1 (stereo not given)	active: 10 µM
COc1ccccc1N(CC(=O)NCCSc1ccccc1)S(=O)(=O)c1ccc(C)cc1	inactive
Cc1cccc(C)c1NC(=O)CN(C)CC(=O)Nc1ccccc1Oc1ccccc1	inactive
COc1ccccc1CNC(=O)CSc1ncc(C(=O)Nc2ccccc2)c(=O)n1C	inactive

Structure (SMILES)	Potency
C=CCOc1ccc(/C=C2\SC(=S)N(CCC(=O)O)C2=O)cc1	inconclusive: 79.4 µM [inhibitor, partial curve]
CN(C)c1ccc(NC(=O)/C=C/c2c(Cl)cccc2Cl)cc1	inconclusive: 8.91 µM [inhibitor, full curve, poor fit]
COc1cc(C(=O)NCC2(c3ccccc3)CCCC2)cc(OC)c1OC	inconclusive: 39.8 µM [inhibitor, single point]
O=C(CCC1N=C2c3ccccc3N=C(SCc3cccc(Cl)c3)N2C1=O)NCc1ccco1 (stereo not given)	inconclusive: 70.8 µM [inhibitor, single point]
CC1CC(=O)N(c2ccc(N(C)Cc3ccccc3)c([N+](=O)[O-])c2)C1=O (stereo not given)	active: 11.2 µM
COc1ccc(CC(=O)N2CCN(S(=O)(=O)c3cc(Cl)ccc3Cl)CC2)cc1	inactive
CC(=O)C1=NN(c2ccc(Cl)cc2)C(c2ccc3c(c2)OCO3)N(C(C)=O)N1C (stereo not given)	inconclusive: 31.6 µM [inhibitor, partial curve]
Cc1c(Cl)cccc1NC(=O)CCS(=O)(=O)c1cccc2nsnc12	inactive
CC1CCc2c(sc3ncnc(SCC(=O)c4ccccc4)c23)C1 (stereo not given)	inactive
CC(=O)Nc1cccc(C(=O)/C=C/c2ccc(Br)cc2)c1	inactive
CC1Cc2ccccc2N1c1ncnc(N)c1[N+](=O)[O-] (stereo not given)	inconclusive: 70.8 µM [inhibitor, partial curve]
C#CCOCCOCCOCCNc1nc(N2CCN(C(=O)CCCCCCCCCCNC(=O)[C@H](CCCN=C(N)N)n3cc(C[C@@H](C)CC)nn3)CC2)nc(N2CCN(C(=O)CCCCCCCCCCNC(=O)[C@@H]([C@H](C)CC)n3cc(CCCCCN)nn3)CC2)n1	active: 56.2 µM
CC(C)n1c(NCc2ccc(N(C)C)cc2)nc2ccccc21	inconclusive: 50.1 µM [inhibitor, partial curve]
CCOC(=O)CN1C(=O)S/C(=C/c2cccc([N+](=O)[O-])c2O)C1=O	inconclusive: 50.1 µM [inhibitor, partial curve]
C/C(=N\NC(=O)c1cc(C)nc2ccc(C)cc12)c1ccncc1	inactive
CC(C)OCCCNC(=O)Cn1c(-c2cccs2)cc2cc(F)ccc21	inactive
CC1CCCC(C)N1/N=C/c1cccc(Br)c1 (stereo not given)	inconclusive: 44.7 µM [inhibitor, partial curve]
Cc1ccc(N/N=C/c2cccnc2)cc1	inconclusive: 56.2 µM [inhibitor, partial curve]
COC(=O)/C(C#N)=C/c1ccc(OC(=O)c2ccccn2)cc1	active: 7.08 µM
CC(Oc1cccc(Cl)c1)C(=O)Nc1ccc([N+](=O)[O-])cn1 (stereo not given)	inconclusive: 89.1 µM [inhibitor, single point]
COc1ccccc1C(=O)COC(=O)Cn1[nH]c(=O)c2ccccc2c1=O	inactive
COc1ccc(/C(O)=C2/C(=O)C(=O)N(c3nc(C)c(C)s3)C2c2ccco2)cc1 (stereo not given)	inconclusive: 89.1 µM [inhibitor, single point]
O=C1NCCCC2c3cc(O)c4ccccc4c3OC12N1CCCCC1 (stereo not given)	inconclusive: 50.1 µM [inhibitor, partial curve]
COc1ccc(N2CCN(Cc3cc(=O)oc4cc(-c5ccccc5)c(O)cc34)CC2)cc1	inactive

Structure (SMILES)	Potency
C=CCOCCN(C)C1=NS(=O)(=O)c2cc([N+](=O)[O-])ccc21	inactive
CCOc1ccccc1-n1nnnc1SCC(=O)NCc1ccco1	inconclusive: 79.4 µM [inhibitor, single point]
CCOC(=O)c1cc2c(=O)n3ccccc3nc2n(CC2CCCO2)c1=NC(=O)c1ccc(OCC)cc1 (stereo not given)	inactive
COc1ccc(S(=O)(=O)NCc2ccco2)cc1N(C)S(=O)(=O)c1ccccc1	inconclusive: 89.1 µM [inhibitor, single point]
Cc1c(CC(=O)NCCCCCC(=O)O)c(=O)oc2c(C)c3oc4c(c3cc12)CCCC4	inconclusive: 89.1 µM [inhibitor, single point]
CCOC(=O)c1sc2nc(C)c([N+](=O)[O-])c(COC)c2c1N	inconclusive: 28.2 µM [inhibitor, full curve]
Cc1cccc(N=C2NN=C(c3c(C)[nH]c4ccccc34)CS2)c1	inconclusive: 79.4 µM [inhibitor, single point]
COc1ccc(/C=C2/SC(=S)N(CCCC(=O)Nc3ccccc3C(=O)O)C2=O)cc1	inconclusive: 56.2 µM [inhibitor, partial curve]
O=C(CC(=O)N/N=C/c1ccccc1O)NCc1cccnc1	inconclusive: 100 µM [inhibitor, single point]
CCCCC(=O)Nc1cc(-c2cn3cccnc3n2)ccc1C	inactive
CCOc1ccc(NC(=O)c2cnn3c2NC(c2ccccc2)=CC3c2cccc(OC)c2OC)cc1 (stereo not given)	inconclusive: 56.2 µM [inhibitor, partial curve]
COc1ccc(N(C)C(=O)c2ccc3c(Cl)c4c(nc3c2)CCCC4)c(OC)c1	inconclusive: 28.2 µM [inhibitor, partial curve]
CCc1nnc(NC(=O)CSc2nnc(COc3ccccc3C)o2)s1	inactive
O=C(CSc1ccccc1)N1CCN(S(=O)(=O)c2ccccc2F)CC1	inconclusive: 79.4 µM [inhibitor, single point]
O=C(Oc1ccc2ccc(OC(=O)N3CCOCC3)cc2c1)N1CCOCC1	inactive
COC(=O)c1c(C)[nH]c(C(=O)CC#N)c1C	inconclusive: 89.1 µM [inhibitor, single point]
COc1ccc(-c2n(Cc3ccccc3)c3ccccc3[n+]2Cc2ccccc2)cc1	inconclusive: 79.4 µM [inhibitor, single point]
COc1cccc(-c2csc(N3CCN(C(=O)C4CCCCC4)CC3)n2)c1	inconclusive: 79.4 µM [inhibitor, single point]
O=c1c(-c2ccc(F)cc2)[n+]([O-])c2ccccc2n1OCc1ccccn1	inactive
CSc1ccc(CCNC(=O)CN2C(=O)COc3ccc(S(=O)(=O)N4CCCC4)cc32)cc1	inconclusive: 79.4 µM [inhibitor, single point]
CN1CCc2nc(SCC(=O)Nc3cccc(F)c3)c(C#N)c(-c3cccs3)c2C1	active: 50.1 µM
CN1CCN(CCc2nc3cc(NC(=O)COc4ccc([N+](=O)[O-])cc4)ccc3n2C)CC1	inactive
